# Source: PubChem BioAssay AID485297 (National Center for Advancing Translational Sciences (NCATS), 2010)
# Hit rate of the full screen: of about 320,000 compounds, about 9,100 (2.8%) were called active. Inconclusive results, whose numbers are uncertain, are shown with a selection of clear calls. Calls come from the whole dose curve; as a rule, active = well fitted activation curve with a large enough effect; inconclusive = small, poorly fitted or top-dose-only effect; inactive = no such curve, though single readings can be large or run the other way. Potencies of inconclusive entries are left out as doubtful fits.
# Assay: qHTS Assay for Rab9 Promoter Activators; note: nearly all actives have a fitted effect of over 60% in size; for activation, negative = inhibition: % of control where 0% means no effect
# Details: Huh7 Rab9 promoter-luciferase reporter, luminescence, 24 h; series mostly up to 9.22 µM; activation, negative = inhibition: at the top concentration
# Summary of the method: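 Using Huh7 cells stably transfected with Rab9 promoter–luciferase, compounds were incubated 24 h at 37 °C, 5% CO2; luciferase luminescence was read 10 min after reagent addition.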
# Potency is the fitted concentration of half-maximal effect; tags give direction and shape of the fitted curve.
SMILES,Potency,"activation, negative = inhibition"
CCCCCc1nnc(NC(=O)C2CCCO2)s1 (centres undefined),"inconclusive [activator, partial curve]",
COc1ccc(-c2nc3ccccc3s2)cc1NC(C)=O,active: 2.24 µM,
Cc1cc(C)c2ccc(C(=O)O)nc2c1O,"inconclusive [activator, single point]",
CN(C(=O)c1cc2c(=O)n3ccccc3nc2n1C)C1CCCCC1,active: 3.16 µM,
Cc1cccc(-c2cc3nc(C)cc(C)n3n2)c1,active: 0.447 µM,
CC(=O)Nc1ccc(NC(=O)COc2ncnc3ccccc23)cc1,"inconclusive [activator, partial curve]",
CCCCCC(=O)N/N=C(\C)c1ccc(NC(=O)c2ccco2)cc1,"inconclusive [activator, partial curve]",
NC(=O)c1ccc2nc(NC(=O)c3ccc(N)cc3)sc2c1,"inconclusive [activator, partial curve]",
CCOc1ccc(NC(=O)CNC(=O)c2ccco2)cc1,"inconclusive [activator, single point]",
Cn1cc([N+](=O)[O-])c(C(=O)Nc2ccc3c(c2)OCCO3)n1,"inconclusive [activator, single point]",
CC(=O)c1ccccc1NC(=O)c1ccc(N2CCCC2=O)cc1,"inconclusive [activator, single point]",
Cc1ccc(C(=O)NC(=C(Cl)Cl)S(=O)(=O)c2ccc(Cl)cc2)cc1,,inactive: -9.17%
Cc1ccc(NC(=O)c2ccc(Oc3ncccn3)cc2)cc1,"inconclusive [activator, partial curve]",
Cc1ccnc(NC(=O)c2ccc(OCc3c(C)noc3C)cc2)c1,"inconclusive [activator, single point]",
Cn1c(=O)c(/C=C/c2ccccc2)nc2ccccc21,active: 3.55 µM,
N/C(=N\OCc1ccccc1)c1nonc1N,"inconclusive [activator, partial curve]",
Cc1ccc(NC(=O)c2cnccn2)c(Br)c1,"inconclusive [activator, single point]",
O=C(NCc1cccs1)C(=O)c1c[nH]c2ccccc12,"inconclusive [activator, partial curve]",
COc1ccccc1C(=O)Nc1nc2ccccc2s1,"inconclusive [activator, single point]",
O=C(Nc1nccs1)c1ccc(Br)o1,"inconclusive [activator, partial curve]",
CC(C)(C)c1nnc(NC(=O)c2ccc(Cl)nc2)s1,active: 4.47 µM,
COc1cc(Cl)cc(/C=C/c2ccc3cccc(O)c3n2)c1OC,"inconclusive [activator, single point]",
CCOc1ccc(C(=O)NN2C(=S)NC(C)(C)C=C2C)cc1,"inconclusive [activator, partial curve]",
Clc1ccc(C2=NNC(=NCC3CCCO3)SC2)cc1 (centres undefined),"inconclusive [activator, partial curve]",
Cc1ccc(/C=N/N=C/c2ccc(C)cc2)cc1,"inconclusive [activator, single point]",

SMILES,Potency,"activation, negative = inhibition"
Cc1ccc(O)c(C(=O)CC(=O)c2ccccc2Cl)c1,"inconclusive [activator, single point]",
CCc1ccc(/C=C2/SC(=S)NC2=O)cc1,"inconclusive [activator, full curve]",
Oc1ccc(Cl)cc1C=Nc1ccccc1Br,,inactive: -0.0777%
Cc1ccc(-c2nn(-c3ccccc3)cc2C(=O)NCCCN2CCOCC2)cc1,,inactive: 4.71%
CCCC(=O)N(C)c1nnc(-c2ccc(OC)cc2)s1,active: 3.98 µM,
CCC(C)NC(=O)CC(c1ccccc1)c1cc(C)ccc1O (centres undefined),,inactive: 3.39%
Cc1ccnc(NC(=O)COc2ccccc2[N+](=O)[O-])c1,"inconclusive [activator, full curve, poor fit]",
CC(=O)Nc1ccc(OCc2nnc(-c3ccc(Cl)cc3)o2)cc1,,inactive: 20.2%
N/C(=N\OC(=O)c1ccc(Cl)cc1Cl)c1ccccn1,active: 0.112 µM,
CC(=O)Oc1ccc(Nc2ccccc2)cc1,,inactive: -1.45%
CCCOc1ccc(-c2nc(-c3ccc(N)cc3)cs2)cc1,"inconclusive [activator, single point]",
COCCCNC(=O)/C(C#N)=C/c1cccc(NC(=O)c2ccccc2Cl)c1,"inconclusive [activator, single point]",
O=C(Nc1ccc(O)cc1)c1c(O)c2c([nH]c1=O)CCCC2,active: 0.562 µM,
CCOC(=O)C1(CCCc2ccccc2)CCN(C(=O)CCOC)CC1,,inactive: 0.0295%
NS(=O)(=O)c1ccc(CCNC(=O)c2cccc(S(=O)(=O)N3CCCC3)c2)cc1,,inactive: 1.37%
CNc1nnc(-c2cccc(N(C)C)c2)s1,"inconclusive [activator, single point]",
CC(C)(C)c1ccc(/C=N/NC(=O)C2CCCC2)cc1,"inconclusive [activator, single point]",
CC1CCN(C(=O)CCNS(=O)(=O)c2ccccc2)CC1,"inconclusive [activator, partial curve]",
Cc1nn(Cc2c(F)c(F)c(F)c(F)c2F)c(C)c1NC(=O)c1cccc(COc2ccccc2Cl)c1,active: 0.355 µM,
COc1ccc(/C=C/C(=O)c2ccc[nH]2)c(OC)c1OC,"inconclusive [activator, single point]",
CC(C)c1ccc(N=c2c([N+](=O)[O-])nn(-c3ccc4c(c3)OCCO4)n2O)cc1,,inactive: -7.84%
CC(O)CNC(=O)C1CCN(Cc2ccc(OCc3ccccc3)cc2)CC1 (centres undefined),,inactive: 14.6%
c1ccc(Nc2scc(-c3ccccc3)[n+]2Cc2ccco2)cc1,"inconclusive [activator, partial curve]",
O=C(c1cc2ccccc2oc1=O)N(Cc1ccccc1)C1CCS(=O)(=O)C1 (centres undefined),"inconclusive [activator, single point]",
Cc1n[nH]c(C)c1N1C(=O)c2cccc3c(N4CCCCCC4)ccc(c23)C1=O,,inactive: -5.62%

SMILES,Potency,"activation, negative = inhibition"
Cc1ccc(C(=O)/C=C2/NC(=O)CS2)cc1,"inconclusive [activator, single point]",
COc1cccc(-c2nnc(N(C)C(=O)C3CCOC3)s2)c1 (centres undefined),"inconclusive [activator, single point]",
Cn1c(SCc2cccnc2)nc2cccnc21,"inconclusive [activator, single point]",
Cc1ccc2nc3ccc(N4CCCCCCC4)nn3c(=O)c2c1,"inconclusive [activator, single point]",
CCc1nnc(NC(=O)Nc2ccc(Cl)cc2)s1,"inconclusive [activator, partial curve]",
COc1ccc(/C=C/c2nc3ccccc3n2Cc2ccccc2OC)cc1,"inconclusive [activator, single point]",
COC(=O)CN1C(=O)S/C(=C/c2ccc(N3CCCCC3)o2)C1=O,"inconclusive [activator, single point]",
CCOC(=O)C1(Cc2cccc(OC)c2)CCCN(C(=O)CCc2cccnc2)C1 (centres undefined),"inconclusive [activator, single point]",
CCCC(=O)Nc1ccc2c(c1)nc1n2CCSC1,"inconclusive [activator, partial curve]",
Clc1ccc2nc(-c3ccc4c(c3)OCO4)cn2c1,active: 0.126 µM,
CCS(=O)(=O)c1ccc(O)c(NC(=O)/C=C/c2ccccc2)c1,"inconclusive [activator, partial curve]",
Cc1c(C)n(CCO)c2ncnc(Nc3ccc(F)cc3)c12,"inconclusive [activator, single point]",
CC(=O)Nc1ccc(NC(=O)c2cccc(-c3cc4ccccc4oc3=O)c2)cc1,active: 3.16 µM,
CC(C)Oc1ccc(C(=O)Nc2ccc(NC(=O)c3ccco3)c(Cl)c2)cc1,"inconclusive [activator, partial curve]",
COC(=O)c1ccc(NS(=O)(=O)c2cc(-c3cc(C)no3)ccc2OC)cc1,"inconclusive [activator, single point]",
N#Cc1ccc(CSc2ccc(S(=O)(=O)N3CCCCCC3)cn2)cc1,,inactive: -7.52%
Fc1ccc(N2CCN(c3cnc4ccccc4n3)CC2)cc1,active: 3.55 µM,
O=C(N/N=C/c1ccc2c(c1)OCO2)c1ccccn1,active: 0.398 µM,
CCOC(=O)C1CCN(c2ncnc3c(C)csc23)CC1,"inconclusive [activator, partial curve]",
O=C(CCc1nnc(-c2ccc3c(c2)OCO3)o1)N1CCC(c2ccc(F)cc2)C1 (centres undefined),"inconclusive [activator, single point]",
Clc1ccc(-c2noc(CN3CCCC3)n2)cc1,"inconclusive [activator, partial curve]",
O=C(CSc1ccc(-c2ccc(-n3cccn3)cc2)nn1)Nc1ccc([N+](=O)[O-])cc1,"inconclusive [activator, partial curve]",
CC(O)CCC(=O)NNC1CC(=O)N(c2ccccc2)C1=O (centres undefined),"inconclusive [activator, single point]",
Cc1ccc(NC(=O)C(C)N=C2NS(=O)(=O)c3ccccc32)cc1F (centres undefined),"inconclusive [activator, single point]",
